# Laboratory results: PubChem BioAssay AID1159614 (National Center for Advancing Translational Sciences (NCATS), 2016)
# Hit rate of the full screen: of about 45,000 compounds, about 65 (0.1%) were called active. Calls follow the shape of the dose curve; as a rule, active = well fitted activation curve with a large enough effect; inconclusive = small, poorly fitted or top-dose-only effect; inactive = no such curve, though single readings can be large or run the other way. This is one part of the list.
# Target: Galactocerebrosidase (Homo sapiens) (UniProt P54803)
# Test: A Novel Cell-Based Assay to Identify Small Molecules for B -Galactocerebrosidase; also: 0% is about no effect; nearly all actives have a fitted effect of over 65% in size
# Settings: 145M-Twi-hGALC-G270D cells (Twitcher mouse brain line with human GALC G270D), HMU-beta-Gal fluorescence, 48 h; series mostly up to 57.5 µM; activation: at the top concentration
# Method in brief: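 Mutant human GALC (G270D), stably expressed in a Twitcher mouse brain cell line lacking endogenous GALC, is measured in live-treated cells via 6-hexadecanoylamino-4-methylumbelliferyl-β-galactoside hydrolysis (0.1 mM final, pH 5.2) with fluorescent detection.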
# UniProt P54803, sequence (P54803 whole entry, looked up): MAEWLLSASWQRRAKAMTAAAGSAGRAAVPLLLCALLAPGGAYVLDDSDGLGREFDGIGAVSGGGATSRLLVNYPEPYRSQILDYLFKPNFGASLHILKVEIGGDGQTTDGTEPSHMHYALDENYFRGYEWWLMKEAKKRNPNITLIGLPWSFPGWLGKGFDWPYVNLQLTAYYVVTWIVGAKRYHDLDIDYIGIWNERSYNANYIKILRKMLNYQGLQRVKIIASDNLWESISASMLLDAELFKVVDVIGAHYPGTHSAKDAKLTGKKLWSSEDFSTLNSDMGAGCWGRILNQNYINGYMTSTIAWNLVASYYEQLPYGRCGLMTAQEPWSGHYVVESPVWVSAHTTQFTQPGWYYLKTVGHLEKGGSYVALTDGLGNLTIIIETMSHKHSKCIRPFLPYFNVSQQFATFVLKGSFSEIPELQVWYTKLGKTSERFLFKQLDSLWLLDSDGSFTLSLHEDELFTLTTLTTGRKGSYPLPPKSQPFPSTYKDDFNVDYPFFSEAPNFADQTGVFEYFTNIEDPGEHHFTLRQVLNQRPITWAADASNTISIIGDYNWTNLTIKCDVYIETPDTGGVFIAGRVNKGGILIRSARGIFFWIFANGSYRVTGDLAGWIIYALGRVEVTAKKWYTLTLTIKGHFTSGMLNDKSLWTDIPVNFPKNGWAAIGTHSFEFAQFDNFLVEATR
row,Compound,activation
1,Cc1ccc(Cl)cc1NC(=O)NC1COc2ccccc2C1 (configuration not stated),inactive: -13.4%
2,Cc1ccc2c(c1)c(=O)c(S(=O)(=O)c1ccc(F)cc1)cn2CC(=O)Nc1ccc2c(c1)OCO2,inactive: -0.93%
3,CC(C)Oc1ccc(CNC(=O)Cc2ccc(NC(=O)N3CCSc4ncccc43)cc2)cc1,inactive: -14.5%
4,CC(C)(C)C1CCc2c(sc(NC(=O)c3ccccc3F)c2C(=O)N2CCCCC2)C1 (configuration not stated),inactive: -13.1%
5,CCc1ccc(CN(Cc2ccco2)C(=O)c2cc(-c3ccc(Cl)cc3)on2)cc1,inactive: -19.3%
6,CCOc1ccc(-c2nonc2NC(=O)c2ccccc2C)cc1,inactive: -5.1%
7,Cc1cc2c(cc1S(=O)(=O)Nc1cccc(C(F)(F)F)c1)OCCN2C,inactive: -13%
8,COc1ccc2c(Sc3ccccc3)c(C(=O)NCCN(C)C)[nH]c2c1,inactive: -18.1%
9,Cn1c(=O)oc2cc(S(=O)(=O)NCCC(=O)Nc3ccc(F)c(Cl)c3)ccc21,inactive: -21.9%
10,CC(C)CN(CCNC(=O)c1cc(=O)[nH]c2ccc(S(=O)(=O)N3CCCCCC3)cc12)CC(C)C,inactive: -3.45%
11,Cc1ccc2[nH]c(CSc3nnc(NC(=O)COc4ccccc4F)s3)cc(=O)c2c1,inactive: -20.4%
12,CCOc1ccc(-c2cc3c(=O)n(CC(=O)Nc4c(C)cccc4C)ccn3n2)cc1,inactive: -16.7%
13,Cc1cccc(Cn2c(CNS(=O)(=O)c3ccc(Cl)s3)nc3cccnc32)c1,inactive: 3.19%
14,CCC(Cn1nnc2ccccc2c1=O)NC(=O)Nc1cc(Cl)ccc1OC (configuration not stated),inactive: -9.5%
15,Cc1ccc(-n2ncc(C(=O)NCc3cccs3)c2C2CCN(C(=O)OC(C)(C)C)CC2)cc1C,inactive: -6.32%
16,CN1CCC[C@@H]1c1cccnc1,inactive: 2.18%
17,Cc1cccc(C2N3CC4(C(C)C)CN2CC(C(C)C)(C3)C4=O)c1 (configuration not stated),inactive: -16.4%
18,CCOc1ccc(NC(=O)CCCN2C(=O)C(c3ccccc3)Oc3cccnc32)cc1 (configuration not stated),inactive: -1.9%
19,Fc1ccc(-c2csc(-c3nc(-c4ccc(Br)s4)cs3)n2)cc1,inactive: -8.25%
20,CC1CCCCN1C(=O)CSc1nnc(-c2cccc(Cl)c2)o1 (configuration not stated),inactive: -5.83%
21,CC(=O)N1CCCc2cc(S(=O)(=O)N(C)CC(=O)Nc3ccc(F)c(Cl)c3)ccc21,inactive: -13.5%
22,Cc1ccc(Cl)cc1NC(=O)/C(C#N)=C/c1c(C)n(Cc2ccccc2)c2ccccc12,inactive: -15.9%
23,O=C(CS(=O)Cc1ccco1)NC/C=C\COc1cc(CN2CCCCC2)ccn1 (configuration not stated),inactive: -3.62%
24,Cc1csc2nc(-c3cccc(NC(=O)c4cccc(F)c4)c3)cn12,inactive: -29%
25,COc1ccc(C)cc1N(C)C(=O)c1sc2nc3n(c(=O)c2c1C)CCCCC3,inactive: -5.33%

row,Compound,activation
1,Cc1cccc(-c2noc(CN(C(=O)c3ccc(C)c(C)c3)C(C)C)n2)c1,inactive: -40%
2,Cc1ccc(NC(=O)c2ncn(-c3ccccc3)n2)c(Cl)c1,inactive: -16.4%
3,CCN(CC)c1ccc2cc(-c3nnc(-c4cccc(Cl)c4)o3)c(=O)oc2c1,inactive: -8.49%
4,Cc1ccc(NC(=O)c2ccc3nc(Cc4ccccc4)oc3c2)cc1F,inactive: -10.5%
5,CCCCN(C)CCNC(=O)Cn1ncc2c3ccccc3n(CCC)c2c1=O,inactive: 10.5%
6,COc1cccc(NC(=O)CSc2nc(-c3ccccc3)nc3c2Cc2cc(Cl)ccc2O3)c1,inactive: -17%
7,Cc1ccc(C(=O)c2oc3ccccc3c2NC(=O)c2nc(S(C)(=O)=O)ncc2Cl)cc1F,inactive: -16.2%
8,CCOc1ccc(CCNC(=O)C2=C(C)C(=O)OC23CCC(C)CC3)cc1OCC (configuration not stated),inactive: -15.2%
9,CCCCCn1c(=O)[nH]c2cc(C(=O)NCc3ccc(C)cc3)ccc2c1=O,inactive: -11.8%
10,CCCOc1ccc(OC(=O)c2sc3ncn(Cc4cccc(F)c4)c(=O)c3c2C)cc1,inactive: -9.68%
11,O=C(c1nc(-c2ccc(Cl)cc2)n2c1CCCCC2)N1CCN(c2ccc(F)cc2)CC1,inactive: -17.6%
12,COc1ccccc1NC(=O)N(Cc1ccco1)C1CCN(C(C)=O)CC1,inactive: 4.81%
13,O=S(=O)(c1ccccc1)c1nc(-c2ccc(F)cc2)oc1N1CCOCC1,inactive: -6.89%
14,CCOc1cc(C#N)c(NC(=O)c2ccc(OC)c(S(=O)(=O)N3CCCC3)c2)cc1OCC,inactive: -11.7%
15,Cc1nc2cc(-c3cccc(F)c3)nn2c(C)c1CCC(=O)N1CCN(c2ccc(F)cc2)CC1,inactive: -30.7%
16,O=C(NCC1(c2ccccc2)CCCC1)C(=O)Nc1cccc(C(F)(F)F)c1,inactive: 7.76%
17,CCOc1ccc(CCNC(=O)CSc2cc(=O)n(C)c3ccccc23)cc1OCC,inactive: -11%
18,COc1ccc(-c2cc(C(=O)N3CCN(c4ccccc4OC)CC3)c3cc(C(C)C)ccc3n2)cc1,inactive: -15.5%
19,Cc1ccc(Cl)cc1N1CCN(C(c2ccc(F)cc2)c2nnc(-c3ccccc3)o2)CC1 (configuration not stated),inactive: -16.8%
20,COC(=O)c1sccc1S(=O)(=O)N1CCN(c2cccc(C)c2C)CC1,inactive: 4.26%
21,O=C(CSc1n[nH]c(-c2ccccc2)n1)N1CCCCC1,inactive: -14.9%
22,CCCCC(CC)COC(=O)/C=C/c1ccc(OC)cc1 (configuration not stated),inactive: -13.1%
23,CCOC(=O)Cn1c(=O)oc2cc(S(=O)(=O)NCc3ccc(F)cc3)ccc21,inactive: -13.2%
24,COc1ccc(CNC(=O)C(=O)NCC(c2ccc3c(c2)OCO3)N2CCOCC2)cc1 (configuration not stated),inactive: -15.6%
25,O=C1CC(c2ccccc2)Cc2[nH]c(=O)c(-c3nc(-c4cccc(Cl)c4)cs3)cc21 (configuration not stated),inactive: -18.8%

row,Compound,activation
1,Cc1noc(/C=C/N(C)C)c1S(=O)(=O)N1CCCC(C(=O)Nc2cccc(F)c2)C1 (configuration not stated),inactive: -11.6%
2,CCN(CC)CCc1nc(-c2ccccc2)no1,inactive: -18%
3,CCOc1ccc(-c2cc3c(=O)n(Cc4nc(-c5cccc(OC)c5OC)oc4C)ccn3n2)cc1Cl,inactive: -6.47%
4,Cc1ccc(CNC(=O)c2nc(SCc3cccc(C)c3)ncc2Cl)cc1,inactive: 15%
5,CCc1ccc(-n2nc3ccc(NC(=O)c4cc5ccccc5o4)cc3n2)cc1,inactive: -15.7%
6,Cc1ccc(CNC(=O)c2cn(C)c3ccc(S(=O)(=O)N(C)C4CCCCC4)cc3c2=O)cc1,inactive: -8.82%
7,Cc1ccccc1Nc1c(-c2ccsc2)nc2c(C)cccn12,inactive: -9.18%
8,O=C(NCc1cccc(Cl)c1)c1cccn1-c1nnc(N2CCCC2)s1,inactive: -6.47%
9,O=C(NCCc1ccccc1)c1ccc(Cn2c(SCc3ccc(F)cc3)nc3cccnc32)cc1,inactive: 16.7%
10,Cc1cc(C)c(Cn2c3ccccc3c3cnn(CC(=O)NCCCc4ccccc4)c(=O)c32)c(C)c1,inactive: -1.04%
11,COc1ccc(OC)c(S(=O)(=O)N2Cc3ccccc3CC2C(=O)Nc2ccc(C(C)=O)cc2)c1 (configuration not stated),inactive: -5.57%
12,CCC(=O)N1CCc2cc(S(=O)(=O)CCC(=O)N3CCN(c4cccc(C)c4)C(C)C3)ccc21 (configuration not stated),inactive: -8.53%
13,CCN(Cc1ccc(OC)cc1)c1ccc(-c2nc(-c3ccncc3)no2)cc1[N+](=O)[O-],inactive: -39.3%
14,Cc1ccccc1NC(=O)Cn1c(=O)n(Cc2ccc3c(c2)OCO3)c(=O)c2oc3ccccc3c21,inactive: 5.44%
15,Cc1cc(C)cc(C(=O)Nc2cc(C(F)(F)F)ccc2N2CCN(c3ccccc3)CC2)c1,inactive: -12%
16,Cc1ccc(-c2cn3cccc(C)c3n2)cc1NS(=O)(=O)c1ccccc1,inactive: -20.4%
17,Cc1ccc(CN(Cc2ccco2)c2cnc(S(C)(=O)=O)nc2C(=O)Nc2ccc(Br)cc2)o1,inactive: -10.3%
18,CC(C)Cn1c(=O)c2ccccc2n2c(-c3ccc(Br)cc3)nnc12,inactive: -12%
19,CCCCN(c1ccccc1)c1ncnc2c1cnn2-c1ccc(Cl)cc1,inactive: -15.4%
20,COc1ccc(OC)c(CCNC(=O)CCn2c(=O)c3cccn3c3cccnc32)c1,inactive: -10.9%
21,Cc1cccc(N(CC(=O)NC(C)c2ccccc2)S(=O)(=O)c2ccccc2)c1C (configuration not stated),inactive: 0.143%
22,Cc1ccc(-c2nn3c(C)nnc3c3ccccc23)cc1S(=O)(=O)NCCO,inactive: -16.2%
23,CC(=O)Nc1ccc(S(=O)(=O)NCC2CCC(C(=O)NCCCOC(C)C)CC2)cc1 (configuration not stated),inactive: -4.18%
24,CCOc1cc(C(=O)OCc2cc(=O)n3c(C)csc3n2)cc(OCC)c1OCC,inactive: -6.92%
25,O=C(c1ccccc1)N1CCc2cc(CNS(=O)(=O)c3ccccc3Cl)ccc21,inactive: -2.64%

row,Compound,activation
1,CCOC(=O)c1ccc(NC(=O)c2noc3c2CCCC3)cc1,inactive: -11.2%
2,Cn1cc(CCCC(=O)NCc2ccc(F)cc2)c2ccccc21,inactive: -10.6%
3,CCOc1ccc(-c2cc3nc(C4CCN(C(=O)OC(C)(C)C)CC4)c(C(=O)Nc4cccc(Cl)c4C)cn3n2)cc1,inactive: -5.51%
4,O=C1NC(NS(=O)(=O)c2ccccc2)(C(F)(F)F)C(=O)N1CCc1ccccc1 (configuration not stated),inactive: 16.7%
5,Brc1ccc(-c2cn3cc(Cc4ccccc4)sc3n2)cc1,inactive: -2.19%
6,CC1CCN(S(=O)(=O)c2ccc3[nH]ccc3c2)CC1,inactive: -10.5%
7,CC(=O)N1CCCc2cc(S(=O)(=O)N3CCCC(C(=O)Nc4ccc(F)cc4F)C3)ccc21 (configuration not stated),inactive: -50.4%
8,O=S(=O)(NCCc1nnc2ccc(SCc3cccc(Cl)c3)nn12)c1ccccc1,inactive: -16.5%
9,Cc1cc(N2CCN(C)CC2)nc2ccc(NC(=O)Nc3ccc(F)cc3)cc12,inactive: -9.06%
10,COc1ccc(Cn2c(CNC(=O)Cc3ccc(OC)c(OC)c3)nc3cccnc32)cc1,inactive: 0.978%
11,O=C(CCC(=O)N1CCOc2ccccc21)NCc1cccs1,inactive: -6.85%
12,CC(NCCC(c1ccccc1)c1ccccc1)c1ccccc1 (configuration not stated),inactive: -4.18%
13,CCN(c1ccccc1)c1ncnc2c1cnn2-c1ccc(OC)cc1,inactive: -14.3%
14,Cc1ccc2[nH]c3c(=O)n(CC(=O)N4CCN(c5ccccc5F)CC4)ncc3c2c1,inactive: -5.47%
15,COc1cccc(CC(=O)Nc2c(C(=O)N3CCN(c4ccccc4)CC3)oc3ccccc23)c1,inactive: -11.5%
16,Cc1ccc(Cn2c(SCc3ccc(C(=O)O)cc3)nc3cccnc32)cc1,inactive: -8.24%
17,COc1ccc(C(=O)N(Cc2ccco2)Cc2ccccc2F)cc1Cl,inactive: -1.77%
18,O=C(Cn1c(=O)n(Cc2ccco2)c(=O)c2sc3ccccc3c21)Nc1ccc(F)cc1F,inactive: -16.1%
19,O=C(NCC(c1ccco1)S(=O)(=O)c1ccc(Cl)cc1)c1ccc(C(F)(F)F)cc1 (configuration not stated),inactive: -8.46%
20,COc1ccc(-c2cc(C(F)(F)F)c(C#N)c(SCC(=O)Nc3cccc(C)c3)n2)cc1,inactive: -3.85%
21,CCC(C)n1c(=O)c2sccc2n2c(CCCC(=O)Nc3ccc(F)cc3)nnc12 (configuration not stated),inactive: -3.58%
22,CSc1ncc(Cl)c(C(=O)Nc2c(C(=O)c3ccc(C)cc3)oc3ccccc23)n1,inactive: -12.2%
